# The supplement of paper PMC8728848
# The other results are listed elsewhere or left out.
# B1: Als1 (Candida albicans), P46590 (protein)
# chain: KTITGVFDSFNSLTWSNAANYAFKGPGYPTWNAVLGWSLDGTSANPGDTFTLNMPCVFKYTTSQTSVDLTADGVKYATCQFYSGEEFTTFSTLTCTVNDALKSSIKAFGTVTLPIAFNVGGTGSSTDLEDSKCFTAGTNTVTFNDGDKDISIDVEFEKSTVDPSGYLYASRVMPSLNKVTTLFVAPQCENGYTSGTMGFSSSNGDVAIDCSNIHIGITKGLNDWNYPVSSESFSYTKTCTSNGIQIKYQNVPAGYRPFIDAYISATDVNQYTLAYTNDYTCAGSRLQSKPFTLRWTGYKNSDAGSNGIVIVATTRTVTDSTTAVTTLPFNPSVDKTKTIEILQPIPTTTITTSYVGVTTSYLTKTAPIGETATVIVDVPYHTTTTVTSEWTGTITTTTTRTNPTDSIDTVVVQVP
# Experiments:
# Test in all cases: glycan array binding signal (z-score within array); higher = stronger binding
# Details in all cases: glycan notation: IUPAC condensed, linker removed
# [1] = biological target: Fuc(a1-3)[Gal(b1-4)]GlcNAc(b1-3)Gal(b1-3)[Fuc(a1-4)]GlcNAc
# How it was run: (§1)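 Columns mapping to the same glycan were averaged after glycan names were converted to IUPAC-condensed notation. The data come from 3228 arrays in the Consortium for Functional Glycomics database, limited to those with an available protein sequence. Binding is reported as a within-array Z-score averaged across arrays of one protein sequence and across linkers.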
# [2] = biological target: Fuc(a1-3)[Gal(b1-4)]GlcNAc(b1-3)Gal(b1-4)[Fuc(a1-3)]GlcNAc
# How it was run: as §1
# [3] = biological target: Fuc(a1-3)[Gal(b1-4)]GlcNAc(b1-3)Gal(b1-4)[Fuc(a1-3)]GlcNAc(b1-3)Gal(b1-4)[Fuc(a1-3)]GlcNAc
# How it was run: as §1
# [4] = biological target: Fuc(a1-3)[Gal(b1-4)]GlcNAc(b1-3)GalNAc
# How it was run: as §1
# [5] = biological target: Fuc(a1-3)[Gal(b1-4)]GlcNAc(b1-6)GalNAc
# How it was run: as §1
# [6] = biological target: Fuc(a1-3)[Gal(b1-4)]GlcNAc(b1-6)[Gal(b1-3)GlcNAc(b1-3)]Gal(b1-4)Glc
# How it was run: as §1
# [7] = biological target: Fuc(a1-3)[Gal(b1-4)]GlcNAc6S
# How it was run: as §1
# [8] = biological target: Fuc(a1-3)[Gal3S(b1-4)]Glc
# How it was run: as §1
# [9] = biological target: Fuc(a1-3)[Gal3S(b1-4)]GlcNAc
# How it was run: as §1
# [10] = biological target: Fuc(a1-3)[Gal3S(b1-4)]GlcNAc6S
# How it was run: as §1
# [11] = biological target: Fuc(a1-3)[GalNAc(b1-4)]GlcNAc
# How it was run: as §1
# [12] = biological target: Fuc(a1-3)[GalNAc(b1-4)]GlcNAc6S
# How it was run: as §1
# Fuc(a1-4)GlcNAc = biological target: Fuc(a1-4)GlcNAc
# How it was run: as §1
# Fuc(b1-3)GlcNAc = biological target: Fuc(b1-3)GlcNAc
# How it was run: as §1
# Gal(a1-2)Gal = biological target: Gal(a1-2)Gal
# How it was run: as §1
# Gal(a1-3)Gal = biological target: Gal(a1-3)Gal
# How it was run: as §1
# Gal(a1-3)Gal(b1-3)GlcNAc = biological target: Gal(a1-3)Gal(b1-3)GlcNAc
# How it was run: as §1
# [13] = biological target: Gal(a1-3)Gal(b1-3)GlcNAc(b1-2)Man
# How it was run: as §1
# [14] = biological target: Gal(a1-3)Gal(b1-3)GlcNAc(b1-2)Man(a1-3)[Gal(a1-3)Gal(b1-3)GlcNAc(b1-2)Man(a1-6)]Man(b1-4)GlcNAc(b1-4)GlcNAc
# How it was run: as §1
# [15] = biological target: Gal(a1-3)Gal(b1-3)GlcNAc(b1-3)GalNAc
# How it was run: as §1
# [16] = biological target: Gal(a1-3)Gal(b1-3)GlcNAc(b1-6)GalNAc
# How it was run: as §1
# [17] = biological target: Gal(a1-3)Gal(b1-3)[Fuc(a1-4)]GlcNAc(b1-2)Man(a1-3)[Gal(a1-3)Gal(b1-3)[Fuc(a1-4)]GlcNAc(b1-2)Man(a1-6)]Man(b1-4)GlcNAc(b1-4)GlcNAc
# How it was run: as §1
# Gal(a1-3)Gal(b1-4)Glc = biological target: Gal(a1-3)Gal(b1-4)Glc
# How it was run: as §1
# Gal(a1-3)Gal(b1-4)GlcNAc = biological target: Gal(a1-3)Gal(b1-4)GlcNAc
# How it was run: as §1
# [18] = biological target: Gal(a1-3)Gal(b1-4)GlcNAc(b1-2)Man
# How it was run: as §1
# [19] = biological target: Gal(a1-3)Gal(b1-4)GlcNAc(b1-2)Man(a1-3)[Gal(a1-3)Gal(b1-4)GlcNAc(b1-2)Man(a1-6)]Man(b1-4)GlcNAc(b1-4)GlcNAc
# How it was run: as §1
# [20] = biological target: Gal(a1-3)Gal(b1-4)GlcNAc(b1-3)GalNAc
# How it was run: as §1
# [21] = biological target: Gal(a1-3)Gal(b1-4)GlcNAc(b1-6)GalNAc
# How it was run: as §1
# [22] = biological target: Gal(a1-3)Gal(b1-4)[Fuc(a1-3)]GlcNAc
# How it was run: as §1
# [23] = biological target: Gal(a1-3)Gal(b1-4)[Fuc(a1-3)]GlcNAc(b1-2)Man(a1-3)[Gal(a1-3)Gal(b1-4)[Fuc(a1-3)]GlcNAc(b1-2)Man(a1-6)]Man(b1-4)GlcNAc(b1-4)GlcNAc
# How it was run: as §1
# Gal(a1-3)GalNAc = biological target: Gal(a1-3)GalNAc
# How it was run: as §1
# [24] = biological target: Gal(a1-3)[Gal(a1-4)]Gal(b1-4)GlcNAc
# How it was run: as §1
# [25] = biological target: Gal(a1-4)Gal(b1-3)GlcNAc(b1-2)Man(a1-3)[Gal(a1-4)Gal(b1-3)GlcNAc(b1-2)Man(a1-6)]Man(b1-4)GlcNAc(b1-4)GlcNAc
# How it was run: as §1
# Gal(a1-4)Gal(b1-4)Glc = biological target: Gal(a1-4)Gal(b1-4)Glc
# How it was run: as §1
# Gal(a1-4)Gal(b1-4)GlcNAc = biological target: Gal(a1-4)Gal(b1-4)GlcNAc
# How it was run: as §1
# [26] = biological target: Gal(a1-4)Gal(b1-4)GlcNAc(b1-2)Man(a1-3)[Gal(a1-4)Gal(b1-4)GlcNAc(b1-2)Man(a1-6)]Man(b1-4)GlcNAc(b1-4)GlcNAc
# How it was run: as §1
# [27] = biological target: Gal(a1-4)Gal(b1-4)GlcNAc(b1-3)Gal(b1-4)Glc
# How it was run: as §1
# Gal(a1-4)GlcNAc = biological target: Gal(a1-4)GlcNAc
# How it was run: as §1
binder,measurement,setting,value
B1,glycan array binding signal (z-score),[1],-0.672
same,glycan array binding signal (z-score),[2],-0.268
same,glycan array binding signal (z-score),[3],-0.652
same,glycan array binding signal (z-score),[4],-0.113
same,glycan array binding signal (z-score),[5],0.895
same,glycan array binding signal (z-score),[6],0.093
same,glycan array binding signal (z-score),[7],-0.009
same,glycan array binding signal (z-score),[8],-0.307
same,glycan array binding signal (z-score),[9],0.309
same,glycan array binding signal (z-score),[10],-0.289
same,glycan array binding signal (z-score),[11],-0.193
same,glycan array binding signal (z-score),[12],0.066
same,glycan array binding signal (z-score),Fuc(a1-4)GlcNAc,-0.383
same,glycan array binding signal (z-score),Fuc(b1-3)GlcNAc,-0.181
same,glycan array binding signal (z-score),Gal(a1-2)Gal,-0.177
same,glycan array binding signal (z-score),Gal(a1-3)Gal,-0.264
same,glycan array binding signal (z-score),Gal(a1-3)Gal(b1-3)GlcNAc,-0.93
same,glycan array binding signal (z-score),[13],-0.555
same,glycan array binding signal (z-score),[14],-0.109
same,glycan array binding signal (z-score),[15],-0.58
same,glycan array binding signal (z-score),[16],-0.689
same,glycan array binding signal (z-score),[17],0.447
same,glycan array binding signal (z-score),Gal(a1-3)Gal(b1-4)Glc,-0.664
same,glycan array binding signal (z-score),Gal(a1-3)Gal(b1-4)GlcNAc,-0.705
same,glycan array binding signal (z-score),[18],-0.755
same,glycan array binding signal (z-score),[19],-0.571
same,glycan array binding signal (z-score),[20],-0.128
same,glycan array binding signal (z-score),[21],-0.612
same,glycan array binding signal (z-score),[22],1.23
same,glycan array binding signal (z-score),[23],-0.352
same,glycan array binding signal (z-score),Gal(a1-3)GalNAc,-0.407
same,glycan array binding signal (z-score),[24],-0.781
same,glycan array binding signal (z-score),[25],-0.549
same,glycan array binding signal (z-score),Gal(a1-4)Gal(b1-4)Glc,-0.57
same,glycan array binding signal (z-score),Gal(a1-4)Gal(b1-4)GlcNAc,-0.303
same,glycan array binding signal (z-score),[26],-0.505
same,glycan array binding signal (z-score),[27],-0.568
same,glycan array binding signal (z-score),Gal(a1-4)GlcNAc,-0.611
